Measurements taken from PMC4920195, “Non-Smc element 5 (Nse5) of the Smc5/6 complex interacts with SUMO pathway components” (Biology Open, 2016).
Numbering of substitutions follows the chain as printed. In names and notes the source's numbering stands. Results are given in words; binding and its absence hold for the method and conditions named. Some results given as binding are weak or reduced against the parent protein; the word gives no strength. For some of these results: Sequences can lack the tags named with a protein. Each block holds one binder with its values, some of them ahead of it.

Columns and labels:
Assay in all cases: two-hybrid; LexA bait and B42 activating domain prey, galactose-induced; liquid culture, quantitative beta-galactosidase activity of permeabilized cells with reporter pSH18034, wild-type cells (JC470)
Nse5-LexA (wild type) = target: T1, Nse5-LexA (wild type) (S. cerevisiae, UniProt Q03718 1-556)
T1 construct: Nse5 of Saccharomyces cerevisiae, NSE5 gene cloned into a pEG202-derived bait plasmid; also called Non-Smc element 5; J-038; source: yeast two-hybrid fusion, galactose-inducible promoter, in S. cerevisiae
T1 sequence (looked up): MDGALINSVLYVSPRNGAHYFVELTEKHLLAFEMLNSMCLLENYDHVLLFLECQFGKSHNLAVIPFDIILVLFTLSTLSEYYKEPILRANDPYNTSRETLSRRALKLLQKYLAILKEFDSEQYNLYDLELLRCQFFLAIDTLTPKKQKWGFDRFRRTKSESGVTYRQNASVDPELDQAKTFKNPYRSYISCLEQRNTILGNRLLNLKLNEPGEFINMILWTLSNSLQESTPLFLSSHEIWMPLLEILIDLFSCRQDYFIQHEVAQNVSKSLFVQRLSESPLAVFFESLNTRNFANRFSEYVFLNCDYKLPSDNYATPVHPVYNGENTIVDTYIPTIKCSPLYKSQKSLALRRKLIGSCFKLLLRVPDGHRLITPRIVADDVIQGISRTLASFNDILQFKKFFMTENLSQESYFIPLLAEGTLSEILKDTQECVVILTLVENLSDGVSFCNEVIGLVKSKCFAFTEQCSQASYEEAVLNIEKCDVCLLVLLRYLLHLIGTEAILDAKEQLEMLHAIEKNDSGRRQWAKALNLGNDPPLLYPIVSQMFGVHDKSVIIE

[1] = target: T2, Nse5-L70A-LexA (S. cerevisiae) (UniProt Q03718)
T2 sequence: T1 sequence (looked up) with L70A

[2] = target: T3, Nse5-L247A-LexA (S. cerevisiae) (UniProt Q03718)
T3 sequence: T1 sequence (looked up) with L247A

[3] = target: T4, Nse5-ts2-LexA (S. cerevisiae) (UniProt Q03718)
T4 sequence: T1 sequence (looked up) with L70A, L247A

- binding (Nse5-LexA (wild type)): binds
B1: Siz1-AD (protein, UniProt Q04195 1-904)
chain: MINLEDYWEDETPGPDREPTNELRNEVEETITLMELLKVSELKDICRSVSFPVSGRKAVLQDLIRNFLQNALVVGKSDPYRVQAVKFLIERIRKNEPLPVYKDLWNALRKGTPLSAITVRSMEGPPTVQQQSPSVIRQSPTQRRKTSTTSSTSRAPPPTNPDASSSSSSFAVPTIHFKESPFYKIQRLIPELVMNVEVTGGRGMCSAKFKLSKADYNLLSNPNSKHRLYLFSGMINPLGSRGNEPIQFPFPNELRCNNVQIKDNIRGFKSKPGTAKPADLTPHLKPYTQQNNVELIYAFTTKEYKLFGYIVEMITPEQLLEKVLQHPKIIKQATLLYLKKTLREDEEMGLTTTSTIMSLQCPISYTRMKYPSKSINCKHLQCFDALWFLHSQLQIPTWQCPVCQIDIALENLAISEFVDDILQNCQKNVEQVELTSDGKWTAILEDDDDSDSDSNDGSRSPEKGTSVSDHHCSSSHPSEPIIINLDSDDDEPNGNNPHVTNNHDDSNRHSNDNNNNSIKNNDSHNKNNNNNNNNNNNNNDNNNSIENNDSNSNNKHDHGSRSNTPSHNHTKNLMNDNDDDDDDRLMAEITSNHLKSTNTDILTEKGSSAPSRTLDPKSYNIVASETTTPVTNRVIPEYLGNSSSYIGKQLPNILGKTPLNVTAVDNSSHLISPDVSVSSPTPRNTASNASSSALSTPPLIRMSSLDPRGSTVPDKTIRPPINSNSYTASISDSFVQPQESSVFPPREQNMDMSFPSTVNSRFNDPRLNTTRFPDSTLRGATILSNNGLDQRNNSLPTTEAITRNDVGRQNSTPVLPTLPQNVPIRTNSNKSGLPLINNENSVPNPPNTATIPLQKSRLIVNPFIPRRPYSNVLPQKRQLSNTSSTSPIMGTWKTQDYGKKYNSG

- binding (Nse5-LexA (wild type)): binds
- binding [1]: no binding
- binding [2]: no binding
- binding [3]: no binding
B4: Smt3-AD (natural protein, S. cerevisiae, UniProt Q12306 1-101, looked up)
chain: MSDSEVNQEAKPEVKPEVKPETHINLKVSDGSSEIFFKIKKTTPLRRLMEAFAKRQGKEMDSLRFLYDGIRIQADQTPEDLDMEDNDIIEAHREQIGGATY
notes: Smt3 (SUMO) of Saccharomyces cerevisiae, SMT3 cloned into a pJG4-6-derived prey vector; also called SUMO; J-043; source: yeast two-hybrid fusion, galactose-inducible promoter, in S. cerevisiae

- binding (Nse5-LexA (wild type)): binds
B7: Ubc9-C93A (enzyme, UniProt P50623 1-157)
chain: MSSLCLQRLQEERKKWRKDHPFGFYAKPVKKADGSMDLQKWEAGIPGKEGTNWAGGVYPITVEYPNEYPSKPPKVKFPAGFYHPNVYPSGTIALSILNEDQDWRPAITLKQIVLGVQDLLDSPNPNSPAQEPAWRSFSRNKAEYDKKVLLQAKQYSK

The remaining lines, values behind:

B2: Cst9-AD (protein, UniProt Q06032 1-482)
chain: MGGYLAIVFIPQTNTKSMREKKQKCLKQVRRLSLISPKKYIMPDSIFEQPFVYCGVCHRRTSHGDPLRLTSCAHILCSQHSPLTSKVCPICRSSDISIINLVESKQLPTDIRIFFEPLPPLLESLYNVSQFQLNGLSKQCQYYQNHCLKLREKCARQQQLLYQAKIELDSMAILKKRIQELESVLNHNNVSSMSVGVLPTRNSHQNHYQPPPTVDLTVDDNSLEEFEAKSFIKKLKKNSSLRNSSKNNNGTVTPSTSGRVNKNQPLFMETLNNPNRNSIPPPGMNPNANSNLPNISTIAESTNLNRFSFSPVRVAKGFDGKLPNLDILTNNGSVSSKNISRLSSASLQPSSPLSSSSNRLILPNSNLKELHHSNTPLTSTSTQFPSALEKLKITRKRNNTISGSNRITHNLSSHVRSSGLAFSSSSNSLQQSKLPKSNILKRSNSTQQLTNTHLKSDNHLPPRSSNTVLGSSKKNNKFRRIR
- binding (Nse5-LexA (wild type)): no binding

B3: Siz2-AD (protein, UniProt Q12216 1-726)
chain: MASVMSNNNNNNNNNNASYMFTNPLSNTGGGLINEIKDAINEMEQLKVLELKQICKSLDLSITGKKAVLQDRIKQFLRKSCDIGHIDPWRPKAIKILIAKVRINSSLPKYSTLWETLKTGAFKHPVASGQLPVTALQSTALPPYSQQQALAYSFTSPFYKPIVQIPDANKKLKQSAGRGCTKMKFKVSKSNHDLLKSNKSYKLYLFSGFSIPFIYETVGHEAIDFPYPCELVFNGTKLEDNVKGLKKQNGTGNPANLTPYLKVPTEMNHLDLHYLNIDKEYSISCFIVEVFSPEALLGKILKRPKIIKQATTAYIKRTLNEQDDDDIITTSTVLSLQCPISCTRMKYPAKTDQCKHIQCFDALWFLHSQSQVPTWQCPICQHPIKFDQLKISEFVDNIIQNCNEDVEQVEISVDGSWKPIHNSSAVITDTVNQNHSVKNENQGTVKQEQDYDSRNAFDTNLRNGSNHNEPEIISLDSSDDEAFIPASKSFPTHVNPRNDQLRADIFPSESEGSSDYNPNHTSTPKGSPTMDQDNYQDAFQMRSFLNQGATTNINDTPTNNSSINSFVTATNGDSRIFYNRGPSTPLLPAVLQNLTNQTEAQRNPYGPNYNTTAQDRNLLGIEGDLPPIPPVDPNSEAETELPTRTTSAAHLPPYIHVSTSGHGDDGKIRKRRHSNVSIYIPKNPYATLMKRRPQANHAIMNKTLAQTNDFNTSAQDNSEVVDLTSD
- binding (Nse5-LexA (wild type)): binds

B5: Ubc9-C93A/K153R (enzyme, UniProt P50623 1-157)
chain: B7 chain with K153R
- binding (Nse5-LexA (wild type)): binds

B6: Ubc9-K153R (enzyme, UniProt P50623 1-157)
chain: B7 chain with A93C, K153R
- binding (Nse5-LexA (wild type)): binds
